Data published in the supplement of paper PMC4967469.
pIC50: −log10 of the molar value. A lower IC50 marks a more sensitive line; a fit beyond the top or the lowest dose is shown as a bound at that dose. The AUC spans the tested range (256-fold, ending at the top dose) of the same fit; it is 1 without any effect and falls as sensitivity rises. For some assays here: Any top dose called inferred was derived from the fitted curves, not read from the paper.

Assays:
Assay in all cases: Viability of human cancer cell lines after 72 h of drug (GDSC screen)
[1] = compound: C=CCNC1=C2C[C@@H](C)C[C@H](OC)[C@H](O)[C@@H](C)/C=C(\C)[C@H](OC(N)=O)[C@@H](OC)/C=C\C=C(/C)C(=O)NC(=CC1=O)C2=O [17-AAG]; conditions: top dose 1 µM
Experimental: (§1)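 Human cancer cell lines in 384-well plates, medium with 10% serum, drug for 72 h over a 256-fold dose range (nine 2-fold or five 4-fold steps up to the top dose). Adherent lines were fixed and stained with the nucleic acid dye Syto60, suspension lines read with resazurin; signal relative to control wells, capped at 0 and 100%. One two-parameter sigmoid per drug and line, fitted in a mixed model over all curves with the slope shared within a line.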

[2] = compound: CCc1cc(-c2n[nH]c(C)c2-c2ccc3c(c2)OCCO3)c(O)cc1O [CCT018159]; conditions: top dose 10 µM; top dose inferred
Experimental: as §1

[3] = compound: CN(C)Cc1cccc(N=C(c2ccccc2)c2c(O)[nH]c3cc(C(=O)N(C)C)ccc23)c1 [BIX02189]; conditions: top dose 20 µM; top dose inferred
Experimental: as §1

[4] = compound: COC(=O)CNC(=O)C(=O)OC [Dimethyloxalylglycine]; conditions: top dose 4000 µM; top dose inferred
Experimental: as §1

[5] = compound: COc1cccc2cc(-c3nc([C@H]4CC[C@H](C(=O)O)CC4)n4ncnc(N)c34)[nH]c12 [OSI-027]; conditions: top dose 20 µM
Experimental: as §1

[6] = compound: CS(=O)(=O)c1ccc(C(=O)Nc2ccc(Cl)c(-c3ccccn3)c2)c(Cl)c1 [Vismodegib]; conditions: top dose 10 µM; top dose inferred
Experimental: as §1

[7] = compound: Cc1cnc(Nc2ccc(F)cc2Cl)nc1-c1c[nH]c(C(=O)N[C@H](CO)c2cccc(Cl)c2)c1 [VX-11e]; conditions: top dose 5.12 µM; top dose inferred
Experimental: as §1

[8] = compound: Cc1cnc(Nc2ccc(OCCN3CCCC3)cc2)nc1Nc1cccc(S(=O)(=O)NC(C)(C)C)c1 [TG101348]; conditions: top dose 10.24 µM
Experimental: as §1

[9] = compound: O=C(c1ccc(C(=O)N2CCC(N3CCCC3)CC2)c(Nc2ccccc2)c1)N1CCC(N2CCCC2)CC1 [UNC1215]; conditions: top dose 1 µM; top dose inferred
Experimental: as §1

Cell Line	AUC [1]	pIC50 [1]	AUC [2]	pIC50 [2]	AUC [3]	pIC50 [3]	AUC [4]	pIC50 [4]	AUC [5]	pIC50 [5]	AUC [6]	pIC50 [6]	AUC [7]	pIC50 [7]	AUC [8]	pIC50 [8]	AUC [9]	pIC50 [9]
697 (lymphoblastic leukaemia, suspension)	0.937	< 6.00	0.887	5.14	0.794	5.14	0.475	3.67	0.097	7.04	0.962	< 5.00	0.943	< 5.29	0.318	6.65	0.99	< 6.00
5637 (bladder, adherent)	0.492	7.23	0.862	5.14	0.968	< 4.70	0.692	3.09	0.62	5.59	0.982	< 5.00	0.952	< 5.29	0.791	5.38	0.989	< 6.00
BB49-HNC (head and neck, adherent)	0.471	7.30	0.869	< 5.00	0.968	< 4.70	0.627	3.19	0.972	< 4.70	0.973	< 5.00	0.978	< 5.29	0.916	< 4.99	0.971	< 6.00
C-33-A (cervix, adherent)	0.971	< 6.00	–	–	0.82	4.94	0.813	2.66	0.174	6.89	0.978	< 5.00	0.882	< 5.29	0.978	< 4.99	0.984	< 6.00
CAL-29 (bladder, adherent)	0.374	7.56	0.898	< 5.00	0.962	< 4.70	0.274	4.27	0.565	5.72	0.968	< 5.00	0.965	< 5.29	0.936	< 4.99	0.981	< 6.00
CAL-51 (breast, adherent)	0.343	7.61	0.799	5.39	0.991	< 4.70	0.479	3.66	0.87	4.84	0.952	< 5.00	0.991	< 5.29	0.942	< 4.99	0.977	< 6.00
CAL-85-1 (breast, adherent)	0.969	< 6.00	0.924	< 5.00	0.961	< 4.70	0.384	–	0.48	5.96	0.967	< 5.00	0.795	5.50	0.801	5.17	0.977	< 6.00
CAL-120 (breast, adherent)	0.792	6.22	0.893	< 5.00	0.864	< 4.70	0.647	3.14	0.308	6.51	0.981	< 5.00	0.968	< 5.29	0.778	5.27	0.971	< 6.00
CAPAN-1 (pancreas, adherent)	0.745	6.46	0.977	< 5.00	0.979	< 4.70	0.383	3.94	0.71	5.28	0.986	< 5.00	0.881	< 5.29	0.87	< 4.99	–	–
CML-T1 (chronic myeloid leukaemia, suspension)	0.97	< 6.00	0.887	5.11	–	–	–	–	–	–	0.964	< 5.00	–	–	–	–	0.978	< 6.00
COR-L321 (lung, suspension)	0.977	< 6.00	0.964	< 5.00	0.964	< 4.70	–	–	0.507	5.88	0.938	< 5.00	0.956	< 5.29	0.9	< 4.99	0.988	< 6.00
CRO-AP2 (B-cell lymphoma, suspension)	0.843	6.24	0.761	5.50	–	–	–	–	–	–	0.957	< 5.00	–	–	–	–	0.981	< 6.00
DU-145 (prostate, adherent)	0.916	< 6.00	–	–	0.961	< 4.70	0.644	3.18	0.81	4.92	0.834	5.12	0.981	< 5.29	0.985	< 4.99	0.981	< 6.00
GA-10 (Burkitt lymphoma, suspension)	0.921	< 6.00	0.893	5.06	–	–	0.194	4.42	–	–	0.979	< 5.00	–	–	–	–	0.986	< 6.00
HT-3 (cervix, adherent)	0.763	6.44	–	–	0.972	< 4.70	0.665	3.14	0.905	< 4.70	0.987	< 5.00	0.971	< 5.29	0.877	< 4.99	0.985	< 6.00
IGROV-1 (ovary, adherent)	0.639	6.74	0.911	< 5.00	–	–	–	–	–	–	0.97	< 5.00	–	–	–	–	0.951	< 6.00
